# Test results from the supplement of paper PMC8728848.
# Some of the results follow.
# B1: SSL (Salmo salar) (protein)
# chain: TGAKGAEEGVVPAETRNQCPTGWFQFGSRCFMFVETARSWPLAERHCVSLGANLASVHSSADDQFLQAIAGCKTGAFSTTWIGGFDAVQDRLWFWSDGSEFDYQNWAKGEPNNSGGREPCIVINWGDEYRWNDIKCGNSFPSVCSKRICEIQKN
# Key:
# Assay in all cases: glycan array binding signal (z-score within array); higher = stronger binding
# Settings in all cases: glycan notation: IUPAC condensed, linker removed
# [1] = target: GlcNAc(a1-4)Gal(b1-4)GalNAc
# In short: (§1)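 Glycan array data were curated from 3228 arrays in the Consortium for Functional Glycomics database and kept only where the protein sequence was available. Glycan names were converted to IUPAC-condensed notation, and columns mapping to the same glycan were averaged. The binding signal is a within-array Z-score, averaged across arrays of the same protein sequence at different concentrations or buffers and across linkers. Negative Z-scores can be read as non-binding.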
# [2] = target: GlcNAc(a1-4)Gal(b1-4)GlcNAc
# In short: as §1
# [3] = target: GlcNAc(a1-4)Gal(b1-4)GlcNAc(b1-3)Gal(b1-4)Glc
# In short: as §1
# [4] = target: GlcNAc(a1-4)Gal(b1-4)GlcNAc(b1-3)Gal(b1-4)GlcNAc
# In short: as §1
# [5] = target: GlcNAc(a1-4)Gal(b1-4)GlcNAc(b1-3)Gal(b1-4)GlcNAc(b1-3)Gal(b1-4)GlcNAc
# In short: as §1
# [6] = target: GlcNAc(a1-4)Gal(b1-4)GlcNAc(b1-3)Gal(b1-4)[Fuc(a1-3)]GlcNAc(b1-3)Gal(b1-4)[Fuc(a1-3)]GlcNAc
# In short: as §1
# [7] = target: GlcNAc(a1-6)Gal(b1-4)GlcNAc
# In short: as §1
# [8] = target: GlcNAc(b1-2)Gal(b1-3)GalNAc
# In short: as §1
# [9] = target: GlcNAc(b1-2)Man(a1-3)[GlcNAc(b1-2)Man(a1-6)]Man(b1-4)GlcNAc(b1-4)GlcNAc
# In short: as §1
# [10] = target: GlcNAc(b1-2)Man(a1-3)[GlcNAc(b1-2)Man(a1-6)]Man(b1-4)GlcNAc(b1-4)[Fuc(a1-6)]GlcNAc
# In short: as §1
# [11] = target: GlcNAc(b1-2)[GlcNAc(b1-4)]Man(a1-3)[GlcNAc(b1-2)Man(a1-6)]Man(b1-4)GlcNAc(b1-4)GlcNAc
# In short: as §1
# [12] = target: GlcNAc(b1-3)Gal
# In short: as §1
# [13] = target: GlcNAc(b1-3)Gal(b1-3)GalNAc
# In short: as §1
# [14] = target: GlcNAc(b1-3)Gal(b1-4)Glc
# In short: as §1
# [15] = target: GlcNAc(b1-3)Gal(b1-4)GlcNAc
# In short: as §1
# [16] = target: GlcNAc(b1-3)Gal(b1-4)GlcNAc(b1-3)Gal(b1-4)GlcNAc
# In short: as §1
# [17] = target: GlcNAc(b1-3)GalNAc
# In short: as §1
# [18] = target: GlcNAc(b1-3)Man
# In short: as §1
# [19] = target: GlcNAc(b1-3)[GlcNAc(b1-4)][GlcNAc(b1-6)]GlcNAc
# In short: as §1
# [20] = target: GlcNAc(b1-3)[GlcNAc(b1-6)]Gal(b1-4)GlcNAc
# In short: as §1
# [21] = target: GlcNAc(b1-3)[GlcNAc(b1-6)]GalNAc
# In short: as §1
# [22] = target: GlcNAc(b1-4)Gal(b1-4)GlcNAc
# In short: as §1
# [23] = target: GlcNAc(b1-4)GlcNAc
# In short: as §1
# [24] = target: GlcNAc(b1-4)GlcNAc(b1-4)GlcNAc
# In short: as §1
# [25] = target: GlcNAc(b1-4)GlcNAc(b1-4)GlcNAc(b1-4)GlcNAc(b1-4)GlcNAc
# In short: as §1
# [26] = target: GlcNAc(b1-4)GlcNAc(b1-4)GlcNAc(b1-4)GlcNAc(b1-4)GlcNAc(b1-4)GlcNAc
# In short: as §1
# [27] = target: GlcNAc(b1-4)[GlcNAc(b1-6)]GalNAc
# In short: as §1
# [28] = target: GlcNAc(b1-6)Gal(b1-4)GlcNAc
# In short: as §1
# [29] = target: GlcNAc(b1-6)GalNAc
# In short: as §1
# [30] = target: GlcNAc3Prop(b1-4)GlcNAc
# In short: as §1
# [31] = target: GlcNAc6S(b1-3)Gal(b1-4)GlcNAc
# In short: as §1
# [32] = target: Kdn(a2-3)Gal(b1-3)GalNAc
# In short: as §1
# [33] = target: Kdn(a2-3)Gal(b1-3)GlcNAc
# In short: as §1
# [34] = target: Kdn(a2-3)Gal(b1-4)Glc
# In short: as §1
# [35] = target: Kdn(a2-3)Gal(b1-4)GlcNAc
# In short: as §1
# [36] = target: Kdn(a2-3)Gal(b1-4)[Fuc(a1-3)]GlcNAc
# In short: as §1
# [37] = target: Kdn(a2-6)Gal(b1-4)GlcNAc
# In short: as §1
# [38] = target: Man(a1-2)Man(a1-2)Man(a1-3)Man
# In short: as §1
# [39] = target: Man(a1-2)Man(a1-2)Man(a1-6)[Man(a1-3)]Man
# In short: as §1
# [40] = target: Man(a1-2)Man(a1-3)Man
# In short: as §1
# [41] = target: Man(a1-2)Man(a1-3)[Man(a1-2)Man(a1-6)]Man
# In short: as §1
# [42] = target: Man(a1-2)Man(a1-3)[Man(a1-2)Man(a1-6)]Man(a1-6)[Man(a1-2)Man(a1-2)Man(a1-3)]Man
# In short: as §1
# [43] = target: Man(a1-2)Man(a1-3)[Man(a1-2)Man(a1-6)]Man(a1-6)[Man(a1-2)Man(a1-2)Man(a1-3)]Man(b1-4)GlcNAc(b1-4)GlcNAc
# In short: as §1
# [44] = target: Man(a1-2)Man(a1-3)[Man(a1-6)]Man(a1-6)[Man(a1-2)Man(a1-3)]Man(b1-4)GlcNAc(b1-4)GlcNAc
# In short: as §1
# [45] = target: Man(a1-2)Man(a1-6)[Man(a1-3)]Man(a1-6)[Man(a1-2)Man(a1-2)Man(a1-3)]Man
# In short: as §1
# [46] = target: Man(a1-2)Man(a1-6)[Man(a1-3)]Man(a1-6)[Man(a1-2)Man(a1-2)Man(a1-3)]Man(b1-4)GlcNAc(b1-4)GlcNAc
# In short: as §1
# [47] = target: Man(a1-3)[Man(a1-6)]Man
# In short: as §1
# [48] = target: Man(a1-3)[Man(a1-6)]Man(a1-6)[Man(a1-2)Man(a1-3)]Man(b1-4)GlcNAc(b1-4)GlcNAc
# In short: as §1
# [49] = target: Man(a1-3)[Man(a1-6)]Man(a1-6)[Man(a1-3)]Man
# In short: as §1
# [50] = target: Man(a1-3)[Man(a1-6)]Man(a1-6)[Man(a1-3)]Man(b1-4)GlcNAc(b1-4)GlcNAc
# In short: as §1
# [51] = target: Man(a1-3)[Man(a1-6)]Man(b1-4)GlcNAc(b1-4)GlcNAc
# In short: as §1
# [52] = target: Man(a1-6)Man
# In short: as §1
# [53] = target: Man(b1-4)GlcNAc
# In short: as §1
# [54] = target: Neu5Ac(a2-3)Gal
# In short: as §1
# [55] = target: Neu5Ac(a2-3)Gal(b1-3)GalNAc
# In short: as §1
# [56] = target: Neu5Ac(a2-3)Gal(b1-3)GalNAc(b1-3)Gal(a1-4)Gal(b1-4)Glc
# In short: as §1
# [57] = target: Neu5Ac(a2-3)Gal(b1-3)GalNAc(b1-4)[Neu5Ac(a2-3)]Gal(b1-4)Glc
# In short: as §1
# [58] = target: Neu5Ac(a2-3)Gal(b1-3)GalNAc6S
# In short: as §1
# [59] = target: Neu5Ac(a2-3)Gal(b1-3)GlcNAc
# In short: as §1
# [60] = target: Neu5Ac(a2-3)Gal(b1-3)GlcNAc(b1-2)Man(a1-3)[Neu5Ac(a2-3)Gal(b1-3)GlcNAc(b1-2)Man(a1-6)]Man(b1-4)GlcNAc(b1-4)GlcNAc
# In short: as §1
# [61] = target: Neu5Ac(a2-3)Gal(b1-3)GlcNAc(b1-3)Gal(b1-3)GlcNAc
# In short: as §1
# [62] = target: Neu5Ac(a2-3)Gal(b1-3)GlcNAc(b1-3)Gal(b1-4)GlcNAc
# In short: as §1
# [63] = target: Neu5Ac(a2-3)Gal(b1-3)GlcNAc(b1-3)GalNAc
# In short: as §1
# [64] = target: Neu5Ac(a2-3)Gal(b1-3)GlcNAc6S
# In short: as §1
# [65] = target: Neu5Ac(a2-3)Gal(b1-3)[Fuc(a1-4)]GlcNAc
# In short: as §1
# [66] = target: Neu5Ac(a2-3)Gal(b1-3)[Fuc(a1-4)]GlcNAc(b1-3)Gal(b1-3)[Fuc(a1-4)]GlcNAc
# In short: as §1
# [67] = target: Neu5Ac(a2-3)Gal(b1-3)[Fuc(a1-4)]GlcNAc(b1-3)Gal(b1-4)[Fuc(a1-3)]GlcNAc
# In short: as §1
# [68] = target: Neu5Ac(a2-3)Gal(b1-3)[Neu5Ac(a2-3)Gal(b1-4)]GlcNAc
# In short: as §1
# [69] = target: Neu5Ac(a2-3)Gal(b1-3)[Neu5Ac(a2-6)]GalNAc
# In short: as §1
# [70] = target: Neu5Ac(a2-3)Gal(b1-4)Glc
# In short: as §1
binder,measurement,setting,value
B1,glycan array binding signal (z-score),[1],-0.147
same,glycan array binding signal (z-score),[2],-0.033
same,glycan array binding signal (z-score),[3],0.85
same,glycan array binding signal (z-score),[4],1.65
same,glycan array binding signal (z-score),[5],0.978
same,glycan array binding signal (z-score),[6],0.023
same,glycan array binding signal (z-score),[7],-0.172
same,glycan array binding signal (z-score),[8],-0.165
same,glycan array binding signal (z-score),[9],3.12
same,glycan array binding signal (z-score),[10],-0.164
same,glycan array binding signal (z-score),[11],6.65
same,glycan array binding signal (z-score),[12],-0.139
same,glycan array binding signal (z-score),[13],0.248
same,glycan array binding signal (z-score),[14],-0.112
same,glycan array binding signal (z-score),[15],-0.022
same,glycan array binding signal (z-score),[16],-0.189
same,glycan array binding signal (z-score),[17],-0.142
same,glycan array binding signal (z-score),[18],-0.129
same,glycan array binding signal (z-score),[19],11.7
same,glycan array binding signal (z-score),[20],6.68
same,glycan array binding signal (z-score),[21],0.96
same,glycan array binding signal (z-score),[22],1.56
same,glycan array binding signal (z-score),[23],-0.148
same,glycan array binding signal (z-score),[24],-0.081
same,glycan array binding signal (z-score),[25],-0.081
same,glycan array binding signal (z-score),[26],-0.065
same,glycan array binding signal (z-score),[27],8.49
same,glycan array binding signal (z-score),[28],-0.164
same,glycan array binding signal (z-score),[29],-0.158
same,glycan array binding signal (z-score),[30],-0.181
same,glycan array binding signal (z-score),[31],-0.171
same,glycan array binding signal (z-score),[32],-0.158
same,glycan array binding signal (z-score),[33],-0.149
same,glycan array binding signal (z-score),[34],-0.172
same,glycan array binding signal (z-score),[35],-0.153
same,glycan array binding signal (z-score),[36],-0.157
same,glycan array binding signal (z-score),[37],-0.18
same,glycan array binding signal (z-score),[38],-0.129
same,glycan array binding signal (z-score),[39],-0.154
same,glycan array binding signal (z-score),[40],-0.143
same,glycan array binding signal (z-score),[41],-0.129
same,glycan array binding signal (z-score),[42],-0.099
same,glycan array binding signal (z-score),[43],-0.162
same,glycan array binding signal (z-score),[44],-0.162
same,glycan array binding signal (z-score),[45],-0.129
same,glycan array binding signal (z-score),[46],-0.122
same,glycan array binding signal (z-score),[47],-0.134
same,glycan array binding signal (z-score),[48],-0.138
same,glycan array binding signal (z-score),[49],-0.174
same,glycan array binding signal (z-score),[50],-0.159
same,glycan array binding signal (z-score),[51],-0.179
same,glycan array binding signal (z-score),[52],-0.17
same,glycan array binding signal (z-score),[53],-0.152
same,glycan array binding signal (z-score),[54],-0.174
same,glycan array binding signal (z-score),[55],-0.163
same,glycan array binding signal (z-score),[56],-0.178
same,glycan array binding signal (z-score),[57],-0.181
same,glycan array binding signal (z-score),[58],-0.18
same,glycan array binding signal (z-score),[59],-0.173
same,glycan array binding signal (z-score),[60],-0.185
same,glycan array binding signal (z-score),[61],-0.157
same,glycan array binding signal (z-score),[62],-0.184
same,glycan array binding signal (z-score),[63],-0.171
same,glycan array binding signal (z-score),[64],-0.167
same,glycan array binding signal (z-score),[65],-0.181
same,glycan array binding signal (z-score),[66],-0.086
same,glycan array binding signal (z-score),[67],-0.154
same,glycan array binding signal (z-score),[68],-0.188
same,glycan array binding signal (z-score),[69],-0.153
same,glycan array binding signal (z-score),[70],-0.169
